Data as given in PubChem BioAssay AID493208 (National Center for Advancing Translational Sciences (NCATS), 2011).
Hit rate of the full screen: of about 44,000 compounds, about 340 (0.77%) were called active. Not shown: some 5% with an inconclusive outcome. The call rests on the fitted dose curve; in most records, active means well fitted inhibition curve with a large enough effect; inconclusive means small, poorly fitted or top-dose-only effect; inactive means flat fitted curve, though single readings scatter. The list shows a part of the results.

Experiment: Acumen qHTS Assay for Inhibitors of the mTORC1 Signaling Pathway in MEF (Tsc2-/-, p53-/-) Cells: Sytravon;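 further: plate controls were DMSO for no effect and rapamycin for full effect; nearly all actives have a fitted effect of over 50% in size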
Conditions: phospho-rpS6 immunofluorescence/PI, 24 h; series mostly up to 38.3 µM; activity change, negative = inhibition: at the top concentration
How it was run: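 Cell-based qHTS: Tsc2-/- p53-/- MEF, 24 h cpd, 37 °C; fix/perm, anti-phospho-S6 Alexa-488 + PI; Acumen 488 nm scan; pS6/PI ratio, % positive cells; rapamycin 7.5 nM = inhibition ref; PI count = viability.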

Activity change, negative = inhibition, inactive:
CC(=O)c1ccc(NC(=O)Cn2nc(N3CCN(c4ccccc4)CC3)ccc2=O)cc1 -1.66%
CC(=O)c1sc(N2C(=O)c3oc4ccccc4c(=O)c3C2c2ccc(C)cc2)nc1C (stereo not drawn) -0.61%
O=C(NCc1cccnc1)c1nn(-c2ccc(F)cc2)nc1CO -0.74%
CCCSc1nc2c([nH]c3ccccc32)c(=O)n1C 0.326%
COc1ccccc1CNC(=O)CSC1=Nc2ccccc2N=C(c2ccc(F)cc2)C1 -16.5%
CCc1ccc(NS(=O)(=O)c2ccc3[nH]cc(C(=O)NCCCOC(C)C)c(=O)c3c2)cc1 0.967%
Cc1ccc(Cl)cc1N1CCN(S(=O)(=O)c2ccc3c(c2)CCN3C(=O)C2CCC2)CC1 -5.66%
CC(C)c1nc2ccc(C(=O)Nc3ccccc3F)cc2o1 0.115%
COc1ccc(NC(=O)c2oc3ccccc3c2NC(=O)COc2ccc(C(C)C)cc2)c(OC)c1 1.72%
O=C(Nc1ccccc1Cl)c1sc2cccc(Cl)c2c1Cl 1.52%
CCOc1cc(CNC(=O)CN2CCSc3ccccc32)cc(OCC)c1OCC -0.996%
COc1cccc(NC(=O)Cn2c(=O)n(Cc3ccccc3)c(=O)c3ccccc32)c1 -3.05%
Cc1ccc(N(CC(=O)Nc2ccc(Cl)cc2)S(=O)(=O)c2cccc3nonc23)cc1 -3.71%
CCSc1nc2n(n1)C(c1ccc(C(=O)O)cc1)C(C(=O)Nc1ccccc1C)=C(C)N2 (stereo not drawn) 2.75%
CN1C(C(=O)Nc2ccc(OC(F)(F)F)cc2)=CC(c2cccs2)=NS1(=O)=O -2.66%
COc1ccc(-c2nc3c(c(SCC(=O)N4CCCCC4)n2)Cc2cc(Cl)ccc2O3)cc1 1.67%
CN(C)c1ccc(CNC(=O)Cn2c(=O)oc3cc(S(=O)(=O)N4CCCCCC4)ccc32)cc1 -7.3%
Cc1ccc(-n2ncc(C(=O)N3CCCCC3)c2C2CCN(C(=O)OC(C)(C)C)CC2)c(C)c1 1.09%
CCCS(=O)(=O)c1nc(S(=O)(=O)c2ccc(C)cc2)c(NC)s1 -7.88%
COc1ccc(-n2c(=O)[nH]c3cc(C(=O)NCCc4ccccc4)ccc3c2=O)cc1OC 5.51%
CCOC(=O)c1c(NC(=O)c2ccc(OC)cc2)sc2c1CCCCC2 2.66%
O=C(COc1ccccc1)Nc1ccc2nc(SCC(=O)N3CCOCC3)sc2c1 -1.31%
O=C(CSc1nnc(-c2ccc(F)cc2)o1)N1CCCc2ccccc21 1.89%
Cc1ccc(CSc2nnc3[nH]c(=O)cc(-c4ccccc4)n23)cc1 -0.342%
COc1cc(OC)c(NS(=O)(=O)c2ccc3oc(=O)c4ncn(C)c4c3c2)cc1Cl -20.5%
COc1ccc(N2CCN(CCCNC(=O)Nc3ccccc3)CC2)cc1 -11.2%
COc1ccc(C2C=C(c3ccc(Cl)c(Cl)c3)Nc3ncnn32)cc1 (stereo not drawn) 6.52%
O=C(CCC1N=C2c3ccccc3N=C(SCc3ccc(Cl)cc3)N2C1=O)N1CCN(c2ccccc2)CC1 (stereo not drawn) -3.11%
COc1ccc(-n2c(SCC(=O)NCc3ccc(C)cc3)nc3n[nH]c(C)c3c2=N)cc1 6.49%
COC(=O)c1sccc1S(=O)(=O)N(CC(=O)NCc1ccc(C)cc1)c1ccc(C)cc1 10%
CCn1cc(C(=O)NCc2ccc(Cl)cc2)c(=O)c2cc(S(=O)(=O)N(C)C3CCCCC3)ccc21 -15.6%
CCOC(=O)C1=C(CN2CCN(c3cccc(Cl)c3)CC2)NC(=O)NC1c1ccc(Cl)cc1 (stereo not drawn) -1.72%
CC(C)(C)c1ccc(OCc2nnc(-c3ccccc3)o2)cc1 -3.64%
COc1ccc(NC(=O)CCCn2nc(C)c3sc4ccccc4c3c2=O)cc1 0.241%
COc1ccc(S(=O)(=O)NCCSc2nnnn2-c2ccccc2)cc1 -3.33%
COc1ccc(-c2nc(CSCC(=O)N3CCN(c4ccc(F)cc4)CC3)c(C)o2)cc1 -21.9%
CCN(Cc1ccccc1)S(=O)(=O)c1ccc(-c2coc(C)n2)cc1 -23.7%
CC(CNC(=O)c1ccc2nc(Cc3ccccc3)oc2c1)c1ccccc1 (stereo not drawn) 3.74%
Fc1ccc(C2=CC(c3ccc(F)cc3)n3c(nc4ccccc43)N2)cc1 (stereo not drawn) -2.43%
Cc1cc(-n2c(C)nc3ccccc3c2=O)ccc1NC(=O)C(F)(F)F 0.381%
O=C(Cn1ncc2c3ccccc3n(Cc3ccc(F)cc3)c2c1=O)NCc1cccs1 1.23%
Cc1cccc(Cc2c(C)nc3c(-c4ccccc4)c(C)[nH]n3c2=O)c1 8.7%
CC1CCCN(S(=O)(=O)c2ccc3c(c2)CCN3C(=O)CCC(=O)O)C1 (stereo not drawn) -14.8%
CCC(C)Nc1ncnc2c1cnn2-c1ccc(F)cc1 (stereo not drawn) 2.99%
COc1ccc(NS(=O)(=O)c2ccc3nc(-c4ccccc4)[nH]c3c2)cc1 -6.98%
Cc1cc(C(=O)Nc2ccc(-n3c(C)nc4ccccc4c3=O)cc2)ccc1[N+](=O)[O-] -8.77%
CCc1nonc1NC(=O)c1oc2ccc(Br)cc2c1C 0.45%
CCc1ccc(-n2c(=O)c3c4c(sc3n(CC(=O)N3CCC(C)CC3)c2=O)CCC4)cc1 -1.99%
